# Measurements: PubChem BioAssay AID504832 (National Center for Advancing Translational Sciences (NCATS), 2011)
# Hit rate of the full screen: of about 310,000 compounds, about 18,000 (5.8%) were called active. The inconclusive results got no clear call from the source; some entries with a clear call stand among them for comparison. Calls come from the whole dose curve; as a rule, active = well fitted inhibition curve with a large enough effect; inconclusive = small, poorly fitted or top-dose-only effect, or another doubt; inactive = no such curve, though single readings can be large or run the other way. No potency is given beside an inconclusive call; the fits are too rough.
# Assay: Primary qHTS for delayed death inhibitors of the malarial parasite plastid, 48 hour incubation
# Conditions: P. falciparum luciferase growth in erythrocytes; series mostly up to 28.7 µM; activity change, negative = inhibition: at the top concentration
# In short: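 Luciferase-expressing parasites in RBCs, 2% Hct / 0.1% parasitemia final; RPMI 1640 + 0.5% Albumax; 37 C, 5% CO2, one generation; luminescence read-out, lower signal = inhibition.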
# % is set by controls: 0 for no effect and ±100 for the full control effect; potency is the fitted concentration of half-maximal effect; tags give direction and shape of the fitted curve.
SMILES,"activity change, negative = inhibition",Potency
CCOC(=O)c1sc(=S)n(-c2cc(OC)ccc2OC)c1N,inactive: -7.57%,
O=C(CCC1CCCC1)N1CCN(S(=O)(=O)c2ccc(Br)cc2)CC1,,"inconclusive [inhibitor, single point]"
O=C(Nc1cccc(S(=O)(=O)N2CCOCC2)c1)C(c1ccccc1)N1CCCCC1 (stereo unspecified),,"inconclusive [inhibitor, single point]"
Cc1ccc(S(=O)(=O)CCc2nc3ccccc3n2CCC#N)cc1,inactive: -20%,
Fc1cccc(CCN2C(=S)NC[C@@H]2CC2CCCCC2)c1,,"inconclusive [inhibitor, single point]"
COc1ccc(S(=O)(=O)N2CCC(C(=O)Oc3c(OC)cccc3OC)CC2)cc1OC,,"inconclusive [inhibitor, partial curve, poor fit]"
CCOC(=O)c1ccc(N2CN(CCc3ccccc3)CNC2=S)cc1,inactive: 18.6%,
CSc1nc2ncc(C(=O)O)c(N)n2n1,inactive: -11.1%,
COc1ccc(S(=O)(=O)N2CCCC(C(=O)NCc3ccncc3)C2)cc1 (stereo unspecified),inactive: -16.2%,
CCO[C@@H]1OC(C(=O)N2CCCCCCC2)=C[C@H](c2ccc3c(c2)OCO3)[C@H]1CCCO,,"inconclusive [inhibitor, single point]"
CCCCN(CC)CCNC(=O)c1cc2c(=O)n(C)c3ccccc3c2s1,,"inconclusive [inhibitor, single point]"
Cc1cccc(N2CCN(C(=O)C3CCN(S(=O)(=O)c4cccc5nsnc45)CC3)CC2C)c1 (stereo unspecified),,"inconclusive [inhibitor, single point]"
c1cncc(-c2nnc(-c3cccnc3)nn2)c1,,active: 2.62 µM
CC(C)CCOP(=O)(c1ccc(N(C)C)cc1)C(Nc1ccccc1)c1ccc(N(C)C)cc1 (stereo unspecified),,"inconclusive [inhibitor, full curve, poor fit]"
COc1ccc(NC(=O)CSc2nc3[nH]c(=O)[nH]c(=O)c3s2)cc1OC,,"inconclusive [inhibitor, partial curve, poor fit]"
c1ccc(-n2nnnc2-n2nnc3ccccc32)cc1,inactive: -6.75%,
CCCCN1C(=O)NC(=O)C2(Cc3c(nc4c(C)cccn4c3=O)N3CCc4ccccc4C32)C1=O (stereo unspecified),,active: 9.28 µM
CC(C)CN(C(=O)COC(=O)c1ccc(Br)cc1)c1c(N)n(Cc2ccccc2)c(=O)[nH]c1=O,,"inconclusive [inhibitor, single point]"
CCOc1ccc2[nH]c(=O)c(CN(Cc3cccs3)Cc3nnnn3C(C)(C)C)cc2c1,,active: 11.7 µM
CCOc1ccc(CC(=O)OCn2nnc3ccccc3c2=O)cc1,inactive: -2.04%,
O=C(CCNC(=O)c1ccco1)Nc1cccc(Br)c1,,"inconclusive [inhibitor, single point]"
COc1ccc(Nc2nc(NCc3ccco3)nc(N/N=C/c3ccccc3F)n2)cc1,,"inconclusive [inhibitor, single point]"
CCN1CCN(C(=O)c2ccc3c(c2)N(Cc2ccccc2F)C(=O)c2ccccc2S3(=O)=O)CC1,,"inconclusive [inhibitor, partial curve, poor fit]"

SMILES,"activity change, negative = inhibition",Potency
O=C(NC1CCCc2ccccc21)c1cc(F)cc(F)c1 (stereo unspecified),,"inconclusive [inhibitor, partial curve, poor fit]"
Oc1c(N=NC(=S)Nc2ccccc2F)c2ccccc2n1Cc1ccccc1Cl,,active: 5.22 µM
CCCn1c(N)c(N(CCOC)C(=O)c2ccc([N+](=O)[O-])cc2Cl)c(=O)[nH]c1=O,inactive: 1.44%,
COc1ccc(C(CC(=O)N2CCOCC2)c2c(OC)cc(OC)c3ccc(=O)oc23)cc1 (stereo unspecified),,"inconclusive [inhibitor, partial curve, poor fit]"
Cc1ccc(S(=O)(=O)Nc2ccc(NC(=O)c3c(F)c(F)c(F)c(F)c3F)cc2)cc1,,"inconclusive [inhibitor, single point]"
CN(C)c1nccc(N(Cc2ccccc2)Cc2ccccc2)c1C#N,,"inconclusive [inhibitor, single point]"
COc1cccc(C(=O)NNC(=O)Cc2cccs2)c1,,"inconclusive [inhibitor, single point]"
COc1ccc(OC)c(C(=O)NC2CCSc3ccccc32)c1 (stereo unspecified),,"inconclusive [inhibitor, partial curve, poor fit]"
CCN1CCN(CCCNC(=O)c2ccc3c(c2)NC(=O)c2ccccc2S3)CC1,,active: 14.7 µM
O=C(c1cnn2c(C(F)F)cc(-c3ccccc3)nc12)N1CCN2CCCC2C1 (stereo unspecified),,"inconclusive [inhibitor, single point]"
COc1ccc(N(CC(=O)Nc2cccc(C)c2)S(=O)(=O)c2ccc(C)cc2)cc1OC,inactive: -24.6%,
CCOC(=O)Nc1cc(NC(=O)OCC)c(C)nc1C,inactive: 12.7%,
CSc1nc2ccccc2n1CC(=O)N1CCCCC1,inactive: 24.8%,
CN(C)CCCN1C(=O)c2oc3ccccc3c(=O)c2C1c1cccs1 (stereo unspecified),,"inconclusive [inhibitor, single point]"
O=C(Nc1ccccc1C(=O)O)c1cccc(C(=O)Nc2ccccc2C(=O)O)c1,inactive: 51.7%,
CCn1cc(C(=O)NC2CCCCCC2)c2cc(OC)c(OC)cc2c1=O,inactive: -19.6%,
CC(C)Cc1c(O)nc(SCC(=O)Nc2ccc3c(c2)CCC3)[nH]c1=O,,"inconclusive [inhibitor, partial curve, poor fit]"
COc1cccc(/C=N/n2nnnc2N)c1,inactive: 0%,
O=C(CSc1nccn1Cc1ccccc1)Nc1nccs1,inactive: 40.2%,
CC(C)(C)NC(=O)Nc1ccc(F)c(Cl)c1,inactive: 21.3%,
CCOc1ccc(NS(=O)(=O)c2ccc(C(=O)N3CCCCCC3)cc2)cc1,,"inconclusive [inhibitor, partial curve, poor fit]"
COc1ccc(S(=O)(=O)n2nc(-c3cc(OC)c(OC)c(OC)c3)cc2N)cc1OC,,"inconclusive [inhibitor, single point]"
CC(C)c1ccc(Nc2nc(Cl)nc(NCc3ccco3)n2)cc1,,"inconclusive [inhibitor, partial curve]"
